{"source": "patent US20160287696A1", "about": "“PAN POLLEN IMMUNOGENS AND METHODS AND USES FOR IMMUNE RESPONSE MODULATION” (LA JOLLA INSTITUTE FOR ALLERGY AND IMMUNOLOGY, priority 2013, published 2016)", "molecules": {"B1": {"name": "NTGA 22: Phl p wild type sequence, Table 2 (protein)", "chain": "MALPNQGTVDYPSFKLVIVGDGGTGKTTFVKRHLTGEFEKKYEPTIGVEVHPLDFTTNCGKIRFYCWDTAGQEKFGGLRDGYYIHGQCAIIMFDVTSRLTYKNVPTWHRDLCRVCENIPIVLCGNKVDVKNRQVKAKQVTFHRKKNLQYYEISAKSNYNFEKPFLYLARKLAGDANIHFVEAVALKPPEVTFDLAMQQQH", "modifications": "Phleum Pratense"}}, "system": "cultured PBMCs of the allergic donors", "assay": "ELISPOT of IL-5 or IFNg production by cultured PBMCs of TG allergic donors in response to peptide", "assay_type": "cell-based, human", "source_text": "Table 1 indicates for each of the 397 PG+ peptides in which non-grass pollen species a matching peptide with either less than 3, less than 2 or zero mismatches are found. The number of TG grass allergic donors (n=20) with an in vitro T cell response to the TG peptide sequence is also shown.\nA set of 93 proteins from Timothy grass (TG) pollen and the assembly of 822 peptides (15 mers) predicted to promiscuously bind HLA class II molecules shown in Table 9 and the immune reactivity in allergic donors have been reported in PCT application WO 2013/119863. […] Immune reactivity was determined by the production of IL-5 or IFNg from cultured PBMCs of the allergic donors in response to stimulation with a peptide and IL-5 and IFNg were measured by ELISPOT as described in Oseroff C et al, 2010.\nIn short, T cell immune reactivity was determined using PBMCs isolated from study participants and stored in liquid nitrogen until further use. For experimental testing, PBMCs were thawed and expanded in vitro with TG pollen extract (50 μg/mL) or the peptide pool ([…]). The TG extract and peptide pools had each been previously titrated to determine optimal stimulation concentrations.\nCytokine production by cultured PBMCs in response to antigen stimulation was measured by ELISPOT. Cells (1×10^5 cells/well) were plated and incubated with peptide (10 μg/mL), the peptide pool (5 μg/mL), or the TG extract (50 μg/mL). Phytohaemagglutinin (10 μg/mL) and medium alone were used as positive and negative controls, respectively. Samples were considered to produce a cytokine if 100 spot-forming cells (SFCs)/10^6 PBMCs were detected, with P .05 and a stimulation index of 2 or more. Criteria for individual peptides were the same except that a minimum of 20 SFCs were required for a sample to be counted as positive.\nTable 3 lists the 397 PG+ peptides and indicates for each non-grass pollen species whether a matching peptide with either less than 3, less than 2 or zero mismatches could be detected. The immune reactivity of the TG peptide was assessed as the number of TG grass allergic donors (n=20) having in vitro T cell response against the TG peptide."}
{"molecule": "B1", "values": [{"measurement": "immune reactivity (SFC counts in ELISPOT) of highly conserved PG+ peptides derived from the NTGA", "value": "high immune reactivity"}, {"measurement": "NTGA's containing at least one T cell epitope, Th+ (Col 2)", "setting": "NTGA number given = criterion met, TG allergic donors n=20", "value": 22}, {"measurement": "No of PG+ & th+ peptides per NTGA", "setting": "Table 6, PG+ peptides recognized by T cells of grass allergic donors (n=20)", "value": 4}, {"measurement": "No of PP & Th+ peptides per NTGA", "setting": "Table 6, PP peptides recognized by T cells of grass allergic donors (n=20)", "value": 3}, {"measurement": "# Th+", "setting": "Table 7, peptides per NTGA recognized by T cells of grass allergic donors (n=20)", "value": 0}]}
